Some of the results follow. Sequences were assembled here from the parent chain. Inactive controls read about 0.05.

First the molecules themselves.
B1: TEV protease; numbered along this chain (parent)
chain: MGESLFKGPRDYNPISSSICHLTNESDGHTTSLYGIGFGPFIITNKHLFRRNNGTLVVQSLHGVFKVKDTTTLQQHLVDGRDMIIIRMPKDFPPFPQKLKFREPQREERICLVTTNFQTKSMSSMVSDTSCTFPSGDGIFWKHWIQTKDGQCGSPLVSTRDGFIVGIHSASNFTNTNNYFTSVPKNFMELLTNQEAQQWVSGWRLNADSVLWGGHKVFMVKPEEPFQPVKEATQL

This experiment covers variants of B1. Nature of the experiment: raw area under fraction-flipped curve 0-4 h after induction (AUC4h, not background-subtracted), DNA-recorder readout of cleavage of the substrate (dimensionless); higher = more cleavage of the substrate by the protease variant. The conditions noted are these: temperature: 34 °C; time window: 0-4 h after rhamnose induction. On the procedure:
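In vivo DNA recorder in E. coli TOP10(DE3) ΔrhaA at 34 °C. Each TEVp single-site mutant (parent TEVp 0) is paired with a single-site variant of the 7-mer TEVs (canonical ENLYFQ|S). The substrate sits between flexible linkers in a Bxb1-sfGFP-TEVs-SsrA fusion, so cleavage stabilises Bxb1 and speeds flipping of a recombination array, read by NGS. The value is the raw area under the fraction-flipped curve over 0-4 h after rhamnose induction (AUC4h), with ≥20 reads per time point. It is not background-subtracted; inactive controls average about 0.047.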
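Note: Bxb1 expression induced with 0.2% (w/v) L-rhamnose at OD600 near 0.5, cultures sampled hourly, flipped fraction per protease–substrate barcode pair counted by paired-end Illumina sequencing.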

Turning to MGESLFKGPRDYNPISSSICHLTNESDGHTTSLYGIGFGPFIITNKHLFRRNNGTLVVQSLHGVFKVKDTTTLQQHLVDGRDMIIIRMPKDFPPFPQKLKFREPQREARICLVTTNFQTKSMSSMVSDTSCTFPSGDGIFWKHWIQTKDGQCGSPLVSTRDGFIVGIHSASNFTNTNNYFTSVPKNFMELLTNQEAQQWVSGWRLNADSVLWGGHKVFMVKPEEPFQPVKEATQL [E108A], the “area with substrate CNLYFQS” value stood at 0.0513, the “area with substrate DNLYFQS” value was found to be 0.0678, the “area with substrate GNLYFQS” value worked out at 0.0523 and the “area with substrate HNLYFQS” value came to 0.0596. The “area with substrate KNLYFQS” value was 0.0632, the “area with substrate LNLYFQS” value came out at 0.0516, the “area with substrate MNLYFQS” value worked out at 0.0609 and the “area with substrate PNLYFQS” value was 0.0426. The “area with substrate QNLYFQS” value is 0.057, the “area with substrate SNLYFQS” value was 0.0719, the “area with substrate TNLYFQS” value was 0.0565 and the “area with substrate WNLYFQS” value turned out to be 0.0546. Further, the “area with substrate YNLYFQS” value came to 0.0523.
Regarding MGESLFKGPRDYNPISSSICHLTNESDGHTTSLYGIGFGPFIITNKHLFRRNNGTLVVQSLHGVFKVKDTTTLQQHLVDGRDMIIIRMPKDFPPFPQKDKFREPQREERICLVTTNFQTKSMSSMVSDTSCTFPSGDGIFWKHWIQTKDGQCGSPLVSTRDGFIVGIHSASNFTNTNNYFTSVPKNFMELLTNQEAQQWVSGWRLNADSVLWGGHKVFMVKPEEPFQPVKEATQL [L99D], the “area with substrate CNLYFQS” value stood at 0.0431, the “area with substrate DNLYFQS” value is 0.0673, the “area with substrate FNLYFQS” value came to 0.0565 and the “area with substrate GNLYFQS” value amounted to 0.0528. Moreover, the “area with substrate HNLYFQS” value came out at 0.0374, the “area with substrate KNLYFQS” value was 0.079, the “area with substrate LNLYFQS” value stood at 0.0561 and the “area with substrate MNLYFQS” value turned out to be 0.0548. Besides, the “area with substrate NNLYFQS” value was 0.0712, the “area with substrate PNLYFQS” value is 0.0612, the “area with substrate SNLYFQS” value came to 0.0822 and the “area with substrate WNLYFQS” value is 0.0469. Also, the “area with substrate YNLYFQS” value came out at 0.065.
For the variant MGESLFKGPRDYNPISSSICHLTNESDGHTTSLYGIGFGPFIITNKHLFRRNNGTLVVQSLHGVFKVKDTTTLQQHLVDGRDMIIIRMPKDFPPFPQKLKFREPQAEERICLVTTNFQTKSMSSMVSDTSCTFPSGDGIFWKHWIQTKDGQCGSPLVSTRDGFIVGIHSASNFTNTNNYFTSVPKNFMELLTNQEAQQWVSGWRLNADSVLWGGHKVFMVKPEEPFQPVKEATQL [R106A], the “area with substrate CNLYFQS” value came out at 0.0741, the “area with substrate DNLYFQS” value was found to be 0.0797, the “area with substrate HNLYFQS” value turned out to be 0.0557 and the “area with substrate INLYFQS” value was determined as 0.0715. Moreover, the “area with substrate LNLYFQS” value came out at 0.0645, the “area with substrate MNLYFQS” value was determined as 0.0619, the “area with substrate QNLYFQS” value stood at 0.0826 and the “area with substrate SNLYFQS” value was found to be 0.0798. The “area with substrate TNLYFQS” value was found to be 0.069, the “area with substrate WNLYFQS” value was determined as 0.0681 and the “area with substrate YNLYFQS” value was determined as 0.0513.
On to MGESLFKGPRDYNPISSSICHLTNESDGHTTSLYGIGFGPFIITNKHLFRRNNGTLVVQSLHGVFKVKDTTTLQQHLVDGRDMIIIRMPKDFPPFPQKLKFHEPQREERICLVTTNFQTKSMSSMVSDTSCTFPSGDGIFWKHWIQTKDGQCGSPLVSTRDGFIVGIHSASNFTNTNNYFTSVPKNFMELLTNQEAQQWVSGWRLNADSVLWGGHKVFMVKPEEPFQPVKEATQL [R102H], for which the “area with substrate CNLYFQS” value worked out at 0.0617, the “area with substrate DNLYFQS” value is 0.0541, the “area with substrate FNLYFQS” value worked out at 0.0684 and the “area with substrate HNLYFQS” value amounted to 0.0577. Also, the “area with substrate INLYFQS” value is 0.0434, the “area with substrate LNLYFQS” value stood at 0.0556, the “area with substrate MNLYFQS” value amounted to 0.0472 and the “area with substrate NNLYFQS” value worked out at 0.0518. The “area with substrate QNLYFQS” value was 0.0605, the “area with substrate SNLYFQS” value worked out at 0.0442, the “area with substrate TNLYFQS” value came out at 0.0476 and the “area with substrate VNLYFQS” value came out at 0.07. The “area with substrate WNLYFQS” value was 0.0307 and the “area with substrate YNLYFQS” value was 0.0752.
Turning to MGESLFKGPRDYNPISSSICHLTNESDGHTTSLYGIGFGPFIITNKHLFRRNNGTLVVQSLHGVFKVKDTTTLQQHLVDGRDMIIIRMPKDFPPFPQKLKFREPQRYERICLVTTNFQTKSMSSMVSDTSCTFPSGDGIFWKHWIQTKDGQCGSPLVSTRDGFIVGIHSASNFTNTNNYFTSVPKNFMELLTNQEAQQWVSGWRLNADSVLWGGHKVFMVKPEEPFQPVKEATQL [E107Y], the “area with substrate CNLYFQS” value came to 0.064, the “area with substrate DNLYFQS” value came out at 0.078, the “area with substrate FNLYFQS” value was found to be 0.0642 and the “area with substrate HNLYFQS” value amounted to 0.0652. The “area with substrate LNLYFQS” value turned out to be 0.0608, the “area with substrate MNLYFQS” value stood at 0.0613, the “area with substrate PNLYFQS” value came out at 0.0645 and the “area with substrate SNLYFQS” value was determined as 0.0717. Also, the “area with substrate TNLYFQS” value turned out to be 0.0481, the “area with substrate VNLYFQS” value was determined as 0.0441, the “area with substrate WNLYFQS” value was 0.0596 and the “area with substrate YNLYFQS” value came to 0.029.
Consider MGESLFKGPRDYNPISSSICHLTNESDGHTTSLYGIGFGPFIITNKHLFRRNNGTLVVQSLHGVFKVKDTTTLQQHLVDGRDMIIIRMPKDFPPFPQLLKFREPQREERICLVTTNFQTKSMSSMVSDTSCTFPSGDGIFWKHWIQTKDGQCGSPLVSTRDGFIVGIHSASNFTNTNNYFTSVPKNFMELLTNQEAQQWVSGWRLNADSVLWGGHKVFMVKPEEPFQPVKEATQL [K98L], for which the “area with substrate CNLYFQS” value is 0.0314, the “area with substrate DNLYFQS” value stood at 0.0902, the “area with substrate FNLYFQS” value came out at 0.0611 and the “area with substrate GNLYFQS” value is 0.0562. Also, the “area with substrate HNLYFQS” value came out at 0.0706, the “area with substrate KNLYFQS” value was determined as 0.0725, the “area with substrate LNLYFQS” value is 0.0295 and the “area with substrate MNLYFQS” value amounted to 0.0627. Further, the “area with substrate NNLYFQS” value was 0.0498, the “area with substrate PNLYFQS” value stood at 0.0469, the “area with substrate SNLYFQS” value stood at 0.0722 and the “area with substrate WNLYFQS” value worked out at 0.0551.
Turning to MGESLFKGPRDYNPISSSICHLTNESDGHTTSLYGIGFGPFIITNKHLFRRNNGTLVVQSLHGVFKVKDTTTLQQHLVDGRDMIIIRMPKDFPPFPQALKFREPQREERICLVTTNFQTKSMSSMVSDTSCTFPSGDGIFWKHWIQTKDGQCGSPLVSTRDGFIVGIHSASNFTNTNNYFTSVPKNFMELLTNQEAQQWVSGWRLNADSVLWGGHKVFMVKPEEPFQPVKEATQL [K98A], the “area with substrate CNLYFQS” value worked out at 0.0519, the “area with substrate DNLYFQS” value is 0.0717, the “area with substrate HNLYFQS” value is 0.0773 and the “area with substrate INLYFQS” value was found to be 0.0744. The “area with substrate KNLYFQS” value was determined as 0.0697, the “area with substrate LNLYFQS” value was found to be 0.0688, the “area with substrate MNLYFQS” value was determined as 0.0719 and the “area with substrate NNLYFQS” value is 0.0614. Also, the “area with substrate PNLYFQS” value was 0.0667, the “area with substrate SNLYFQS” value is 0.0722, the “area with substrate VNLYFQS” value was 0.0976 and the “area with substrate WNLYFQS” value was 0.0573. Further, the “area with substrate YNLYFQS” value was found to be 0.0698.
Regarding MGESLFKGPRDYNPISSSICHLTNESDGHTTSLYGIGFGPFIITNKHLFRRNNGTLVVQSLHGVFKVKDTTTLQQHLVDGRDMIIIRMPKDFPPFPQCLKFREPQREERICLVTTNFQTKSMSSMVSDTSCTFPSGDGIFWKHWIQTKDGQCGSPLVSTRDGFIVGIHSASNFTNTNNYFTSVPKNFMELLTNQEAQQWVSGWRLNADSVLWGGHKVFMVKPEEPFQPVKEATQL [K98C], the “area with substrate CNLYFQS” value turned out to be 0.0881, the “area with substrate DNLYFQS” value was 0.0974, the “area with substrate FNLYFQS” value was 0.0571 and the “area with substrate HNLYFQS” value came out at 0.0598. The “area with substrate INLYFQS” value came out at 0.0613, the “area with substrate KNLYFQS” value is 0.0613, the “area with substrate LNLYFQS” value stood at 0.0542 and the “area with substrate MNLYFQS” value came out at 0.0778. In addition, the “area with substrate NNLYFQS” value was 0.0673, the “area with substrate PNLYFQS” value amounted to 0.0672, the “area with substrate RNLYFQS” value worked out at 0.0525 and the “area with substrate SNLYFQS” value amounted to 0.0697. Also, the “area with substrate TNLYFQS” value came out at 0.0515, the “area with substrate VNLYFQS” value turned out to be 0.0719, the “area with substrate WNLYFQS” value stood at 0.0748 and the “area with substrate YNLYFQS” value is 0.0677.
As for MGESLFKGPRDYNPISSSICHLTNESDGHTTSLYGIGFGPFIITNKHLFRRNNGTLVVQSLHGVFKVKDTTTLQQHLVDGRDMIIIRAPKDFPPFPQKLKFREPQREERICLVTTNFQTKSMSSMVSDTSCTFPSGDGIFWKHWIQTKDGQCGSPLVSTRDGFIVGIHSASNFTNTNNYFTSVPKNFMELLTNQEAQQWVSGWRLNADSVLWGGHKVFMVKPEEPFQPVKEATQL [M88A], the “area with substrate CNLYFQS” value was found to be 0.0829, the “area with substrate DNLYFQS” value was found to be 0.0649, the “area with substrate FNLYFQS” value came to 0.0489 and the “area with substrate HNLYFQS” value worked out at 0.0627. Besides, the “area with substrate INLYFQS” value came to 0.0641, the “area with substrate LNLYFQS” value was 0.067, the “area with substrate PNLYFQS” value was determined as 0.0624 and the “area with substrate QNLYFQS” value was found to be 0.0836. The “area with substrate WNLYFQS” value is 0.0563 and the “area with substrate YNLYFQS” value was found to be 0.0396.

Source of the values: the supplement of paper PMC12217912.
